Screen size: about 150,000 compounds; about 540 (0.36%) showed an effect of 50% or more. This is one part of the list.

The subject of this test is Plasmodium falciparum. In words: Primary screen in NF54 nanoGlo assay, in single point, at 2uM, 72h; a lower Z score goes with more inhibition. In kind it is functional, Erythrocyte. Conditions: timepoint 72 hour.
As to `C[C@@H](CNC(=O)c1ncccc1Br)Nc1ccccc1`, the “% Inhibition” value came out at 6% and the Z score was -0.85.

With `CN(Cc1cscn1)C(=O)c1nn(Cc2ccccc2)c2c1CN(C(=O)c1ccnn1C)CC2`, the “% Inhibition” value is -9% and the Z score was found to be 1.18.

As to `COc1ccc(NC(=O)c2ccc3cc[nH]c3c2)cn1`, the “% Inhibition” value stood at 0% and the Z score is 0.07.

For the compound `CCC=C(C)C(=O)N[C@@H](C)c1cc(OC)ccc1OC`, the “% Inhibition” value is given as -7% and the Z score amounted to 1.09.

Regarding `Cn1cc2c(n1)CCC[C@H]2C(=O)Nc1ccc(C(C)(C)C)cc1O`, the “% Inhibition” value turned out to be 4% and the Z score is recorded as -0.49.

On to `CC(C)(C#N)C(=O)Nc1ccc(-c2nc3ccccc3s2)cn1`, for which the “% Inhibition” value is given as -23% and the Z score is given as 2.11.

On to `CC(C)N1C2CCC1CN(CC(=O)NC(C)(C#N)C(C)C)CC2` (stereo not drawn), for which the “% Inhibition” value is on record as -1% and the Z score was found to be 0.11.

For `Cc1nnc(CC(=O)N2CCCc3c(C)c(F)cc(Cl)c32)o1`, the “% Inhibition” value is -15% and the Z score is on record as 1.92.

As for `Cc1cc(C(=O)NCc2cccnc2-n2ccnc2)cc2sc(N)nc12`, the “% Inhibition” value is reported as -9% and the Z score is 1.07.

On to `CCOC(=O)c1cc2n(n1)C[C@@](C)(C(=O)NC1CCCCCC1)N(c1ccc(NC(C)=O)cc1)C2=O`, for which the “% Inhibition” value was determined as 0% and the Z score is on record as 0.09.

As for `CN(CCc1ccccn1)c1ncccc1CNc1ncccc1C(F)(F)F`, the “% Inhibition” value was -3% and the Z score turned out to be 0.27.

Regarding `O=S(=O)(CC1CCCCC1)NCc1noc(-c2ccccc2)n1`, the “% Inhibition” value is -7% and the Z score was determined as 1.27.

For `Cc1ccc2c(c1)C(C)(C)C(=O)N2CC(=O)N1CCN(c2ccc(Cl)cc2)CC1`, the “% Inhibition” value is -14% and the Z score came out at 2.32.

Regarding `CC(C)Oc1ccc(CN2C[C@H]3CC[C@H]2C3)cc1CO`, the “% Inhibition” value was determined as 6% and the Z score was -1.25.

Consider `CC(C)(C)c1ccn(C2(C(=O)O)CCN(C/C=C/c3ccco3)CC2)n1`, for which the “% Inhibition” value is recorded as -7% and the Z score was found to be 0.84.

As for `CC(C)(C)OC(=O)N1C[C@H](O)C[C@H]1c1n[nH]c(-c2ccccc2)n1`, the “% Inhibition” value was -6% and the Z score came out at 0.62.

Turning to `CC1CCC(O)(CN2CCCN(CC3(O)CCC(C)CC3)CC2)CC1` (stereo not drawn), the “% Inhibition” value is reported as -1% and the Z score is 0.09.

With `CN(Cc1ccc(N2CCOCC2)cc1)c1nccc2ccc(F)cc12`, the “% Inhibition” value turned out to be 5% and the Z score is -0.59.

`CC(C)(CCNC(=O)OC(C)(C)C)NC(=O)C1=C[S@+]([O-])CCC1`: the “% Inhibition” value was -3% and the Z score worked out at 0.45.

Consider `COCC(=O)N1CCN(S(=O)(=O)c2cccc3nonc23)CC1`, for which the “% Inhibition” value is listed as 0% and the Z score stood at 0.06.

As to `COC(=O)CN1CCc2onc(-c3cccc4ccccc34)c2C1`, the “% Inhibition” value is -1% and the Z score was determined as 0.16.

As for `NC(=O)N[C@@H]1C[C@H]1c1c(F)cccc1Cl`, the “% Inhibition” value is 2% and the Z score was -0.29.

Regarding `CCc1nc2cc(-c3noc(Cc4ccc(C)cc4)n3)ccc2o1`, the “% Inhibition” value is on record as -15% and the Z score was found to be 1.5.

Consider `C[C@H](O)CN1CCn2c(cnc2C(F)(F)F)C1`, for which the “% Inhibition” value is listed as -6% and the Z score is 0.61.

Turning to `CCOC1(C)CCN(Cc2cnn(C)c2C(F)(F)F)CC1`, the “% Inhibition” value is on record as 3% and the Z score is -0.38.

Take `COCCn1nc(C)c(NCc2cc(C)oc2C)c1C`: the “% Inhibition” value is -5% and the Z score stood at 0.77.

Regarding `COC(=O)[C@H](Nc1cnn(C(C)(C)C)c1)c1cccnc1`, the “% Inhibition” value was -10% and the Z score was 1.48.

For `CCN1C(=O)C[C@H](C(=O)Nc2ccc(-n3cncn3)nc2)[C@H]1c1nccn1CC`, the “% Inhibition” value is recorded as -7% and the Z score is on record as 1.13.

On to `COCCn1nc(C)c(CNC(=O)N2CCC(C(C)C)CC2)c1C`, for which the “% Inhibition” value was -5% and the Z score is given as 0.67.

For `O=c1[nH]ccn1CCN(CCO)C1CCCCC1`, the “% Inhibition” value is listed as 11% and the Z score is reported as -1.37.

On to `O=C(O)c1ccc(C(=O)N(Cc2ccccc2F)C2CCC2)nc1`, for which the “% Inhibition” value was 1% and the Z score is -0.14.

As for `CN(CCN1CC(c2ccccc2)(c2ccccc2)CCC1=O)S(C)(=O)=O`, the “% Inhibition” value is -6% and the Z score was determined as 0.72.

On to `CCn1ccnc1[C@H]1OCCC[C@@H]1NS(=O)(=O)N1CCCC1`, for which the “% Inhibition” value was 20% and the Z score is listed as -2.56.

With `C[C@@H]1CC[C@H](CO)N1C(=O)C1CCc2cncn2C1` (stereo partly drawn), the “% Inhibition” value is reported as -11% and the Z score turned out to be 1.42.

As for `O=C(CC(c1ccccc1)c1ccccc1)N1CC(n2ccnn2)C1`, the “% Inhibition” value was -13% and the Z score was determined as 1.52.

Consider `COC[C@@H]1CN(S(=O)(=O)c2ccccc2)C[C@H]1c1nc(C)no1`, for which the “% Inhibition” value was -16% and the Z score is 2.76.

Consider `CCc1ncc2c(n1)CN(C(=O)c1cc(C)c(-c3ccccc3)s1)C2`, for which the “% Inhibition” value is recorded as -5% and the Z score was 0.84.

As to `CCS(=O)(=O)CCN(C)C(=O)Nc1c(C)cc(Cl)cc1C`, the “% Inhibition” value is 6% and the Z score is on record as -0.93.

For `Cc1c(CNCc2cn(C(C)(C)C)nn2)cnn1C`, the “% Inhibition” value is on record as -9% and the Z score worked out at 1.24.

As to `Cc1nc(CC(=O)Nc2cn(C)nc2-c2ccco2)c(C)s1`, the “% Inhibition” value is -12% and the Z score came to 1.48.

`Cc1ccc2c(NC(=O)NC3CCN(c4cnccn4)CC3)cccc2n1`: the “% Inhibition” value is listed as -5% and the Z score amounted to 0.75.

Consider `CN(C)C(=O)O[C@H]1CCN(C(=O)c2sncc2Br)C1`, for which the “% Inhibition” value was determined as 0% and the Z score is given as -0.04.

For the compound `CC(C)(C)OC(=O)N1CCC[C@@]2(CCN2C(=O)c2ncccc2O)C1`, the “% Inhibition” value was -9% and the Z score was found to be 1.24.

`c1ccc(-c2n[nH]c(C3CCN(c4nccn5nnnc45)CC3)n2)cc1`: the “% Inhibition” value is given as -8% and the Z score is 1.25.

`CNC(=O)c1nnsc1N1CC(C)OC(C)C1` (stereo not drawn): the “% Inhibition” value is -6% and the Z score was 0.84.

Take `CC(C)(C)c1ncc(CNc2ccc(F)c(F)c2)cn1`: the “% Inhibition” value is -4% and the Z score stood at 0.34.

Take `CC[C@H]1CN(C(=O)c2cccc(-c3nccc(OC)n3)c2)CCN1C(C)C`: the “% Inhibition” value is on record as -9% and the Z score stood at 1.12.

As to `Cc1c(CC(=O)N[C@H]2CC[C@H](O)CC2)c2c(n1Cc1ccccc1)CCCC2=O`, the “% Inhibition” value is recorded as 2% and the Z score is -0.4.

Turning to `COCc1cc(=O)[nH]c2cc(NC(=O)Cc3c(C)noc3C)ccc12`, the “% Inhibition” value is -16% and the Z score came to 2.28.

In the case of `O=C([C@@H]1COc2ccccc2C1)N1CCCN(CC(F)F)CC1`, the “% Inhibition” value is listed as -3% and the Z score worked out at 0.39.

Consider `CCOc1ccc(C2c3[nH]c4ccccc4c3C[C@H]3C(=O)N(C4CCN(Cc5ccccc5)CC4)CC(=O)N23)cc1OC` (stereo partly drawn), for which the “% Inhibition” value was determined as 79% and the Z score is reported as -7.03.

In the case of `CNc1ccc(C)cc1CNc1cccc([C@@H]2CCC(=O)N2)c1`, the “% Inhibition” value was -11% and the Z score was determined as 2.04.

For `COC(=O)c1cc(-c2ccc(Cl)cc2)nc2c1c(C1CC1)nn2C`, the “% Inhibition” value is reported as -11% and the Z score was found to be 1.26.

In the case of `Cc1cccc(OC[C@]2(CNCc3cccnc3)C[C@@H](O)[C@@H](O)C2)n1`, the “% Inhibition” value is given as -3% and the Z score is recorded as 0.49.

For the origin of these results see ChEMBL document CHEMBL4888484, “Replenishing the malaria drug discovery pipeline: Screening and hit evaluation of the MMV Hit Generation Library 1 (HGL1) against asexual blood stage Plasmodium falciparum ,using a nano luciferase reporter read-out” (2022).
